Sequences with one replicate were seen in a single cluster, so their values are uncertain.
System: ATP
Assay: switch fluorescence ratio, 500 uM ATP over buffer (Cy3 cluster intensity, sum of 5 cycles each) (fold (ratio)); higher = stronger signal-on switching upon ATP binding; sequences stand for … in TCGTCGGCAGCGTCAGATGTGTATAAGAGACAGTTTTTTTTTTTTTTTTTTTTTTTTT…TC
Conditions: aptamer strand: ATP DNA aptamer (quencher-CACCTGGGGGAGTATTGCGGAGGAAGG + anchor), 100 nM annealed; ATP concentration: 500 uM; one replicate
Outline: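 Cy3-labelled switching-strand clusters on a modified Illumina MiSeq flow-cell were annealed to 100 nM quencher-labelled ATP aptamer and imaged first in selection buffer, then after 15 min with 500 uM ATP at 22 °C. NaOH stripping and re-annealing separated each of five buffer/ATP cycles, and clusters outside 100-1000 RFU were excluded. The fluorescence ratio sums target-cycle Cy3 intensity over buffer-cycle Cy3 intensity per cluster and averages it per switch-domain sequence.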
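Further: ATP exposure 15 min at 22 °C before imaging.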

| Sequence | switch fluorescence ratio |
| --- | --- |
| GATCCGTGTG | 0.994 |
| ATTAATCACG | 1.08 |
| TTGAGGCGCC | 0.999 |
| AGGTGTTCT | 0.997 |
| GTTTGCATGA | 1.01 |
| TCTTTGTCTG | 1.02 |
| CCCATTATCT | 1.01 |
| GGACGAGGGG | 1.03 |
| GTTCTTCTCG | 1.06 |
| AACCACGGGG | 1.01 |
| CTACAACGCG | 0.994 |
| ACATGTTCTA | 1.04 |
| ATGATGAACA | 0.973 |
| GACGCACCGT | 1.49 |
| CTAAAATCGA | 0.982 |
| GATACTTGCA | 0.982 |
| GTCTCCACG | 1.03 |
| GAAAAATCGC | 0.997 |
| CTCGGATACG | 0.894 |
| AATATGCTCA | 1.03 |
| ATCCTTAGAA | 1.02 |
| CTGAGATAAA | 1.02 |
| ATGCTTGAGA | 0.993 |
| GCGGGATAGG | 1.04 |
| CGGGTTAAGC | 1.03 |
| GGCCGGTTAG | 0.984 |

| Sequence | switch fluorescence ratio |
| --- | --- |
| ATCGTGTTC | 0.95 |
| ATTAATACTG | 1.01 |
| ACCGTAGAAA | 1.82 |
| AGAGCGCCTG | 1.01 |
| TTTCGCGGGG | 1.05 |
| ATGTGGTAGG | 0.967 |
| GCAGATTCGG | 0.965 |
| TATGTTATGC | 1.08 |
| GGGACAGGAT | 1.01 |
| AGCGCCTGGC | 1.05 |
| GCGCACACCT | 1.17 |
| ATGCTGGGTG | 1.14 |
| CCATCTGAGT | 1.09 |
| GGAAATTCTA | 1.03 |
| CACTTTGCAT | 1.15 |
| TCTGCTAGCA | 1.02 |
| GGCGGTTGCT | 1 |
| TTTGATGAAT | 1.01 |
| TTACAATGCT | 1.09 |
| CCGGCTGTGT | 1.03 |
| CCTCTTAT | 1.06 |
| ACACGAACGA | 1.49 |
| CAAATGAAG | 0.979 |
| GCTGTGTGCT | 0.97 |
| ATATGGAGCT | 0.993 |
| GAGCGGATCA | 0.97 |

| Sequence | switch fluorescence ratio |
| --- | --- |
| AGATGTGGT | 1.01 |
| CTGTCGCGGC | 1.08 |
| AGCTGTATCA | 0.994 |
| GATCTAGTAT | 1 |
| TGATTCGGAC | 1.02 |
| TGTGGCTTCT | 0.935 |
| AGTGAACAT | 0.999 |
| GAATTCTGGA | 0.961 |
| TGTATGCGGG | 0.959 |
| CGAAGTAGC | 1.22 |
| ACAACTTAAA | 0.981 |
| GGGGCACTAT | 1.02 |
| TTGCCACAA | 1.39 |
| AACCCTTCTA | 1.03 |
| GGGCCTATGA | 0.998 |
| TGGTGAACTT | 0.999 |
| TATTGCCGGA | 1.19 |
| GCGATAGGGT | 1.01 |
| ACTCTTCCTG | 1.31 |
| AGGGATTCTC | 0.984 |
| CGAGGTCGCT | 1 |
| ACGTTCACGG | 1.11 |
| CAGCGGCGCT | 1.03 |
| TGAATGCATC | 1.01 |
| TCGGTCCTTG | 1.02 |
| CCTTTGCCGG | 1.03 |

| Sequence | switch fluorescence ratio |
| --- | --- |
| ACATCGAT | 0.995 |
| GGTGGGCCCC | 0.957 |
| GGCGATAGTT | 0.972 |
| CTACTGGACA | 1.21 |
| TAGGGTGAGG | 1.01 |
| TGACCAGTCG | 0.999 |
| TGTTACCTGT | 1.04 |
| AAAACA | 1.04 |
| CTGATAATAG | 1.05 |
| ACACTAATAA | 1.03 |
| TAGCGATCAG | 0.979 |
| CGTGGTCCGT | 0.962 |
| TATAATGTGA | 1.01 |
| CCCACAATTT | 1.24 |
| TATGAGT | 1.02 |
| TATATGTTCG | 1.07 |
| AAGGTAGCCT | 0.999 |
| CGTGCATGCT | 1.01 |
| CTAGGGTATT | 0.991 |
| GAGTATTTTA | 0.936 |
| CCGGCTCCAA | 2.08 |
| TGACCTATAT | 1.04 |
| GGTCGATCGT | 0.94 |
| CGCTCCAGAG | 1.1 |
| TGGTCCGTTG | 0.992 |
| TCACATACCT | 1.64 |

| Sequence | switch fluorescence ratio |
| --- | --- |
| CAATACGCCA | 1.85 |
| GACATGGAGG | 0.997 |
| GTGATATTCA | 0.983 |
| CCACTTACCG | 1.23 |
| GTAAGCTAAG | 0.995 |
| AGACGCAAA | 2.1 |
| TGAACGCGGG | 0.978 |
| ATTCGTTATT | 0.992 |
| AAACAGGTTC | 1.05 |
| TCGTGTTACC | 1.01 |
| GATCGAAACC | 1.08 |
| ATCGTATGT | 1.04 |
| CGTAATGTGT | 0.987 |
| TTGGGCCCTA | 0.99 |
| GGATCATGTA | 0.969 |
| GAGTGGTGTA | 1.02 |
| AAATTTTAAC | 1.03 |
| ACGGTGCGGC | 1.11 |
| ATAGAGCAGG | 1.21 |
| AACCGCGAAG | 1.05 |
| GCATAACGAA | 1.07 |
| GTGCCGAGCT | 1.01 |
| CCGACTTCAC | 3.43 |
| CGGTATGGAC | 0.982 |
| ATCAAGTATT | 1.02 |
| ATTATTGAGC | 0.99 |

| Sequence | switch fluorescence ratio |
| --- | --- |
| GCTGATGTT | 0.978 |
| TAGCCAGGAG | 1.15 |
| ACTTTACCCT | 1.38 |
| TGAGGTTCCT | 1.05 |
| AATGCCCTTT | 0.979 |
| GCATGCAGTG | 1 |
| TGCAAACGCT | 1.09 |
| CCCTGGCCTT | 0.97 |
| GTTAATAGAC | 1 |
| CCCCTCGCTA | 4.41 |
| CACCAAGCAT | 1.19 |
| GGTATGGACT | 1.04 |
| AGGGAGCCAC | 1.02 |
| CGGATGCAGT | 0.977 |
| GTTCTTTAGC | 1.02 |
| CTTTCAACTA | 0.962 |
| GTAGTATGTT | 0.931 |
| CTATAACGCC | 1.03 |
| GCGGAATATC | 3.47 |
| CCCTTGAATG | 1.02 |
| TACCTAGTAC | 1.13 |
| ATTATAGCGC | 1.01 |
| TTTATCAGCG | 0.992 |
| GATTTCCGGG | 1.3 |
| GAGCTAGTGA | 1 |
| TTTTGTGTCG | 1.02 |

| Sequence | switch fluorescence ratio |
| --- | --- |
| CAGAGCCAGC | 0.897 |
| AAACTTGACG | 1.03 |
| GGACTCTCAA | 1.07 |
| GGTATCTCG | 0.954 |
| CGTCGGTGAG | 0.966 |
| TCGTAAAAGC | 1.09 |
| AAGTAGCTC | 1.03 |
| CGAGGTTCGA | 0.939 |
| TAGCATTTGA | 1.04 |
| CAGTTGAC | 1.05 |
| TGATATTTGG | 1 |
| TAAGTGTGT | 1.02 |
| GGGTCCAATG | 1.03 |
| TTTGTAATCG | 0.914 |
| ACTTTTTACT | 1.06 |
| ATTGGCCTGA | 1 |
| CATCCCAAAA | 1.63 |
| GCGAAATATA | 1 |
| ACATCAAGAT | 1.03 |
| GATTACTTC | 1.03 |
| TGTGCTTTTC | 0.97 |
| CGCCCTCACC | 1.39 |
| AATGTTTACA | 1.02 |
| GATGGAAATG | 1.03 |
| ACGGTATGGT | 1.09 |
| ACTTCTGGAA | 1.12 |

| Sequence | switch fluorescence ratio |
| --- | --- |
| AACTTAGAGA | 1.01 |
| ACGTATAGCT | 1.13 |
| TCAACGCGTC | 1.14 |
| GCGACATTTA | 1.04 |
| TTGCTCGGTC | 1.02 |
| ATCTGCGACG | 1.03 |
| TGTAGTGTGG | 0.963 |
| GATAAATCCA | 1.02 |
| AAGTGTGAGG | 1 |
| GAGGTAGTAT | 1.05 |
| GTCGCGGCAT | 0.993 |
| CATGGAGTGG | 0.958 |
| GCTTCCGGGA | 1.53 |
| GCACACGTCC | 1.12 |
| GTCTTCATGA | 0.99 |
| GCGAATTGCT | 1.01 |
| TCTGCAGCCG | 1.02 |
| GGCTGGCCTA | 0.949 |
| CGGACTCTT | 1 |
